Test results reported in paper PMC4336329 (PLoS ONE, 2015).
The whole screen tested about 310,000 compounds, of which about 14,000 (4.5%) showed an effect of 50% or more. The effect is printed as a negative number. Some of the results follow.

target: human ether-à-go-go-related gene (hERG) potassium channel (human, UniProt Q12809); assay: primary screen, population patch clamp on CHO cells stably expressing hERG
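Note: peak tail current of the secondary pulse compared with the same well before compound.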

Chain of human ether-à-go-go-related gene (hERG) potassium channel (Q12809 whole entry, looked up): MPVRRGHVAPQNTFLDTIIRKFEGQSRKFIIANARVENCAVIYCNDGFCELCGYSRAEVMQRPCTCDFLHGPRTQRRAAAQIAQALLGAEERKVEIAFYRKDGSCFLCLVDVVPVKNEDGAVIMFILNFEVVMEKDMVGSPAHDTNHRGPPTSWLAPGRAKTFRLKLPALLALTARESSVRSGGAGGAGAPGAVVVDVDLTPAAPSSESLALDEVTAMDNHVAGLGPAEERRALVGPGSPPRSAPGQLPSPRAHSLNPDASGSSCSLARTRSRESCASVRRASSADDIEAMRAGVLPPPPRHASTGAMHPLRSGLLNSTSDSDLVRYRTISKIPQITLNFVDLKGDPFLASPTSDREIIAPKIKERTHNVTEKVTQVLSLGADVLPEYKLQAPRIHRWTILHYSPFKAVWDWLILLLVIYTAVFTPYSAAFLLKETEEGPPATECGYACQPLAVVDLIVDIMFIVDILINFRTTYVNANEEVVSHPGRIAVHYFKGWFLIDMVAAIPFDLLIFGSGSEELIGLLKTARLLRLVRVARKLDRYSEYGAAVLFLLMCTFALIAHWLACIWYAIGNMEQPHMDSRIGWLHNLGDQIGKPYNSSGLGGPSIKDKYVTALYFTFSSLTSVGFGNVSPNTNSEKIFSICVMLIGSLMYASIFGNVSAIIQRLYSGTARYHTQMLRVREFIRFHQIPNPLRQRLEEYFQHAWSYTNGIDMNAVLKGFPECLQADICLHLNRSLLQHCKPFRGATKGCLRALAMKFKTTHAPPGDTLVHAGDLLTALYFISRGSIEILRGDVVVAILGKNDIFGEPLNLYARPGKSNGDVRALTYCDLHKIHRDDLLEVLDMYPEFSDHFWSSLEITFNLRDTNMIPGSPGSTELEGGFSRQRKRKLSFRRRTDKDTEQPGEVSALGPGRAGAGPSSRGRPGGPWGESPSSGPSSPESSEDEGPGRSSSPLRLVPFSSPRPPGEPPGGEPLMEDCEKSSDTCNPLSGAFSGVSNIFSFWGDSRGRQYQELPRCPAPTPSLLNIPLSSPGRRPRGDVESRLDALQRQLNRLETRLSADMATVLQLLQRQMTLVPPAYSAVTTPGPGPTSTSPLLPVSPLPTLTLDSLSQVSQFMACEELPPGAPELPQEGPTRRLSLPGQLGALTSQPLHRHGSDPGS

Going from `CC1CCc2sc(C(=O)N3CCC(C(N)=O)CC3)cc2C1` (stereo not shown) to `COC(=O)COc1cccc2c(=O)n(CC(=O)N3CCC(C)CC3)ccc12`, the “hERG current change (%, negative = inhibition) at 10uM” value falls from 5.36% to 5.01%.

Compared with `COCCN(C(=S)Nc1cccc(Cl)c1C)C(C)c1ccco1` (stereo not shown), `COC(=O)c1ccccc1NC(=O)c1cc(-c2ccco2)on1` is higher in “hERG current change (%, negative = inhibition) at 10uM” value: -15.4% for the first, 22.6% for the second.

Compared with `O=C(CN1CCC(n2nnc3cc(F)ccc32)CC1)NNC(=O)c1ccccc1`, `CC(=O)NCC(=O)N1CCCC(C(=O)c2ccc(-c3ccccc3)c(F)c2)C1` (stereo not shown) is lower in “hERG current change (%, negative = inhibition) at 10uM” value: -11.9% for the first, -25.1% for the second.

Going from `CSCC[C@H](NC(=O)NCCc1ccc(F)cc1)C(=O)O` to `CCCCC(C(=O)O)C(C)CC(=O)NNC(=O)c1ccco1` (stereo not shown), the “hERG current change (%, negative = inhibition) at 10uM” value rises from -6.55% to 13.2%.

First: CC(=O)Nc1ccc(S(=O)(=O)Nc2ccc(S(=O)(=O)Nc3ncccn3)cc2)cc1
Second: CCn1nc(NS(=O)(=O)c2ccc(NC(C)=O)cc2)c2cc3cc(C)ccc3nc21
The “hERG current change (%, negative = inhibition) at 10uM” value of the first is lower: -0.782% for the first, 16.7% for the second.

Compared with `O=c1cc(-c2ccccc2)[nH]c2cc(F)ccc12`, `N#Cc1cc(C(=O)c2cc(F)ccc2O)cn(Cc2ccccc2)c1=O` is higher in “hERG current change (%, negative = inhibition) at 10uM” value: 2.32% for the first, 4.69% for the second.

First: O=C(OCc1cc(=O)oc2cc(O)ccc12)c1cc(S(=O)(=O)N2CCOCC2)ccc1F
Second: COc1ccc(C(=O)N2CCN(S(=O)(=O)c3ccc4c(c3)OCCO4)CC2)cc1OC
The “hERG current change (%, negative = inhibition) at 10uM” value of the first is higher: 5.32% for the first, -12.8% for the second.

Compared with `CC(CNS(=O)(=O)c1ccc2c(c1)CC(=O)N2C)c1ccccc1` (stereo not shown), `CCC(C(=O)Nc1cc(C)cc(C)n1)c1ccccc1` (stereo not shown) is lower in “hERG current change (%, negative = inhibition) at 10uM” value: -12.3% for the first, -23.6% for the second.

Going from `Fc1ccc(-c2csc(-c3ccc(C4SCCS4)cc3)n2)cc1F` to `COc1ccc(-c2csc(NC(=O)CS(=O)(=O)c3ccc(F)cc3)n2)cc1OC`, the “hERG current change (%, negative = inhibition) at 10uM” value falls from 4.89% to -25.6%.

Going from `Cc1cccc(NS(=O)(=O)c2cnc[nH]2)c1` to `Cc1cccc(Nc2nc(CC(=O)O)cs2)c1`, the “hERG current change (%, negative = inhibition) at 10uM” value falls from 6.61% to 5.01%.

Compared with `O=C(CNC(c1ccccc1)c1ccccc1)Nc1ccccc1Br`, `O=C(Nc1nnc(-c2ccccc2SCc2ccccc2)s1)Nc1ccccc1F` is lower in “hERG current change (%, negative = inhibition) at 10uM” value: 23.3% for the first, 22.9% for the second.

Compared with `COCCn1c(=NC(=O)c2ccc(S(=O)(=O)N3CCc4ccccc4C3)cc2)sc2cc(S(N)(=O)=O)ccc21`, `NC(=O)Nc1ccc(C(=O)OCC(=O)N2CCc3ccccc3C2)cc1` is higher in “hERG current change (%, negative = inhibition) at 10uM” value: 4.21% for the first, 5.29% for the second.

Compared with `CCCNC(=O)Nc1nc2ccccc2s1`, `O=C(Nc1ccccc1-c1nc2ccccc2[nH]1)c1sc2ccccc2c1Cl` is higher in “hERG current change (%, negative = inhibition) at 10uM” value: -3.26% for the first, 1.59% for the second.

First: O=C1CN(C(=O)CN2CCCCC2)C(c2ccccc2)c2cc(Br)ccc2N1 (stereo not shown)
Second: NNC(=O)CN1C(c2ccc(Br)cc2)=Nc2ccc(Br)cc2C1c1ccccc1 (stereo not shown)
The “hERG current change (%, negative = inhibition) at 10uM” value of the first is lower: -66.5% for the first, -30.8% for the second.

Going from `O=C1CCN(CCc2ccccc2)CCN1[C@H](CSc1ccc(Br)cc1)c1ccccc1` to `CCOc1ccc(C(c2nnnn2Cc2ccccc2)N2CCN(C(=O)c3ccco3)CC2)cc1.Cl` (stereo not shown), the “hERG current change (%, negative = inhibition) at 10uM” value rises from -66.2% to -57%.

First: Cc1c(CCO)c(=O)n(C)n1C(=O)c1ccc(Cl)cc1
Second: Cc1ccc(C(=O)CSc2nnnn2Cc2ccccc2)cc1C
The “hERG current change (%, negative = inhibition) at 10uM” value of the first is lower: -2.66% for the first, 11.3% for the second.

Going from `Cc1csc(NC(=O)CSc2nncn2C)n1` to `CCCCC(=O)Nc1nnc(S(=O)(=O)N(CC)c2ccc(OC)cc2)s1`, the “hERG current change (%, negative = inhibition) at 10uM” value falls from 19% to 6.21%.

First: COc1cccc(CN2CCNC(=O)C2CC(=O)NC2CCCCCCC2)c1 (stereo not shown)
Second: Cc1ccc(OCCNC(=O)C2CCCCC2)cc1
The “hERG current change (%, negative = inhibition) at 10uM” value of the first is higher: 14% for the first, -2.18% for the second.

Going from `CC(Sc1nc2ccccc2c(=O)n1C)C(=O)Nc1ccc2c(c1)OCCO2` (stereo not shown) to `CCn1c(=O)cc(SCC(=O)Nc2cccc(SC)c2)c2ccccc21`, the “hERG current change (%, negative = inhibition) at 10uM” value falls from 15.1% to 13.5%.

First: CCCCn1c(=NC(=O)c2ccco2)c(C(=O)OCC)cc2c(=O)n3cccc(C)c3nc21
Second: CCOC(=O)c1ccccc1NC(=O)c1ccc2nc[nH]c2c1
The “hERG current change (%, negative = inhibition) at 10uM” value of the first is lower: -81.6% for the first, 19.8% for the second.

First: CCC(O)C1CCN(Cc2cn(-c3ccc(OC)cc3)nc2-c2cccc(F)c2)CC1 (stereo not shown)
Second: CCOc1ccc(-c2nnc(Nc3ccc(OC)c(C(=O)N4CCCCC4)c3)c3ccccc23)cc1
The “hERG current change (%, negative = inhibition) at 10uM” value of the first is lower: -75.3% for the first, -10.2% for the second.

Going from `COc1ccc(NC(=O)Nc2ccc(O)c3ccccc23)cc1` to `COc1ccc(C2CC(c3ccc(C)cc3)=NN2C(=O)c2ccccc2)cc1` (stereo not shown), the “hERG current change (%, negative = inhibition) at 10uM” value rises from 9.01% to 21.4%.

Compared with `O=C(/C=C/Nc1ccccc1)c1ccc(Cl)cc1Cl`, `CCOC(=O)Nc1ccc(C(=O)Oc2ccccc2)c(O)c1` is lower in “hERG current change (%, negative = inhibition) at 10uM” value: 6.04% for the first, 1.52% for the second.

First: CN(c1cc(=O)n2ccccc2n1)C1CCCCC1
Second: CN(Cc1cn(C)nc1-c1cccc(Cl)c1)C1CCOCC1
The “hERG current change (%, negative = inhibition) at 10uM” value of the first is higher: -0.762% for the first, -4.25% for the second.

Going from `C[C@@H](NC(=O)[C@@H]1Cc2ccccc2CN1)C(=O)NCC1CCCO1` (stereo partly shown) to `O=C1CC(c2ccco2)Cc2nc(NCC3CCCO3)ncc21` (stereo not shown), the “hERG current change (%, negative = inhibition) at 10uM” value falls from 20.9% to -32.4%.

First: CCOc1ccc(NC(=O)CN(C)C(=O)c2ccc(COc3ccccc3)cc2)cc1OCC
Second: CCOc1ccc(NC(=O)CN(C)C(=O)CC2OC(=O)c3ccccc32)cc1OCC (stereo not shown)
The “hERG current change (%, negative = inhibition) at 10uM” value of the first is lower: -7.39% for the first, 0.75% for the second.

First: O=C(Oc1ccc(Br)cc1)c1cncc(Br)c1
Second: COc1cccc(NC(=O)CN(C)CC(=O)Nc2ccc(Br)cc2)c1
The “hERG current change (%, negative = inhibition) at 10uM” value of the first is higher: 8.29% for the first, -29.9% for the second.

Compared with `COc1cc(/C=C2/C(=N)N3N=C(CC(=O)N4CCOCC4)SC3=NC2=O)ccc1OCc1ccccc1`, `CCCC(=O)Nc1cc(-c2nnc(OC)c3ccccc23)ccc1N1CCOCC1` is lower in “hERG current change (%, negative = inhibition) at 10uM” value: 19% for the first, -42.9% for the second.

Going from `CCc1ccc(NC(=O)CNC(=O)[C@@H]2Cc3ccccc3CN2C(=O)OC(C)(C)C)cc1` to `CSc1ccccc1NC(=O)CN(Cc1ccc(Cl)cc1)S(C)(=O)=O`, the “hERG current change (%, negative = inhibition) at 10uM” value rises from -22.8% to -16.2%.

First: CCNC(=S)NNC(=O)c1ccc(=O)n(Cc2ccccc2)c1
Second: C/C(=N\NC(=O)Cc1ccccc1Cl)c1cccnc1
The “hERG current change (%, negative = inhibition) at 10uM” value of the first is lower: -1.41% for the first, 12.4% for the second.

Going from `C=CCNC(=S)NC(=O)c1csc([N+](=O)[O-])c1` to `CC1CC1C(=O)OCC(=O)Nc1cccc(F)c1` (stereo not shown), the “hERG current change (%, negative = inhibition) at 10uM” value rises from -3.79% to 3.09%.

Going from `Cc1cc(OCC(=O)N2CCc3ccccc3C2)c(C)cc1Br` to `Cc1ccc(C)c(OCC(=O)Nc2ccccc2C(=O)N2CCN(C)CC2)c1`, the “hERG current change (%, negative = inhibition) at 10uM” value falls from 21.6% to -9.99%.

Going from `COc1ccc2c(c1)[nH]c1c(=O)n(CCN(C)C)cnc12` to `COc1cc(/C(C)=N/NC(=O)CSc2nc3ccccc3[nH]2)ccc1O`, the “hERG current change (%, negative = inhibition) at 10uM” value rises from -34.1% to -22.5%.

Compared with `CC(OC(=O)c1ccncc1)C(=O)NC1CCCC1` (stereo not shown), `CC(C)(C)NC(=O)Nc1nnc(SCC(=O)NC2CCCCC2)s1` is lower in “hERG current change (%, negative = inhibition) at 10uM” value: 9.99% for the first, -0.523% for the second.

First: CC(C)Cc1nnc(NC(=O)CCC(=O)N2CCN(c3ccccn3)CC2)s1
Second: Cc1ccc2c(c1)N(CCC(=O)NCCCN1CCCC1)C(=O)C(C)O2 (stereo not shown)
The “hERG current change (%, negative = inhibition) at 10uM” value of the first is lower: -11.3% for the first, 22.4% for the second.

Going from `O=C(CN1CCOCC1)Nc1ccc(NC(=O)CN2CCOCC2)c(Cl)c1` to `O=C(COC(=O)c1cccc(S(=O)(=O)N2CCCCC2)c1)NC1CCCc2ccccc21` (stereo not shown), the “hERG current change (%, negative = inhibition) at 10uM” value rises from 2.62% to 15.8%.

Going from `CCN1CCCC1CNCc1cccc(OC)c1OCc1ccccc1.Cl` (stereo not shown) to `CCN1CCCC1CNCc1cccc(OC)c1OCc1ccccc1F.Cl` (stereo not shown), the “hERG current change (%, negative = inhibition) at 10uM” value falls from -26.9% to -54.4%.

Compared with `CCC(C(=O)NCc1ccccn1)n1c2ccccc2c2nc(=O)cc(C)n21` (stereo not shown), `Cc1nn2c(NCc3ccccn3)c3c(nc2c1-c1ccccc1)CCC3` is lower in “hERG current change (%, negative = inhibition) at 10uM” value: -1.77% for the first, -51% for the second.

Going from `Cc1ccc2cc(/C=N/NC(=O)c3ccc(F)cc3)c(Cl)nc2c1` to `CC(=O)Nc1ccc(Nc2nc(C)c([N+](=O)[O-])c(N(C)c3ccccc3)n2)cc1`, the “hERG current change (%, negative = inhibition) at 10uM” value falls from -5.9% to -48.2%.

Going from `S=C(c1ccc(Br)cc1)N1CCCC1` to `O=C(c1cnn2c1NC(c1ccc(Br)cc1)CC2C(F)(F)F)N1CCN2CCCC2C1` (stereo not shown), the “hERG current change (%, negative = inhibition) at 10uM” value falls from -3.82% to -63.5%.

Going from `COc1cc(CN2CCc3c([nH]c4ccccc34)C2)cc(OC)c1` to `COc1cccc(NC(=O)CN(C)C(=O)c2cc3ccccc3cc2OC)c1`, the “hERG current change (%, negative = inhibition) at 10uM” value rises from -55.7% to -46.6%.

Going from `Cn1nnnc1SCc1csc(C2C(C#N)=C(N)OC3=C2C(=O)CCC3)c1` (stereo not shown) to `CC(C)Cn1c(N)c(C(=O)COC(=O)/C=C/c2cccs2)c(=O)n(C)c1=O`, the “hERG current change (%, negative = inhibition) at 10uM” value falls from -12.2% to -49.9%.

First: CO/N=C/c1ccc(Oc2ccc(C)cc2)c([N+](=O)[O-])c1
Second: Cc1cc(C=O)c(C)n1-c1ccc(Oc2ccc([N+](=O)[O-])cn2)cc1
The “hERG current change (%, negative = inhibition) at 10uM” value of the first is higher: 12.1% for the first, -56.7% for the second.

Going from `CC(NC(=O)c1ccc2c(c1)OCO2)C1CCCO1` (stereo not shown) to `COc1ccc(CC(=O)NNc2ncnc3c2cnn3C)cc1`, the “hERG current change (%, negative = inhibition) at 10uM” value rises from -8.57% to 3.18%.
